# According to the supplement of paper PMC8728848:
# This is one part of the list.
# B1: Gal-9-hFc (Mus musculus), O08573-2 (protein)
# chain: MALFSAQSPYINPIIPFTGPIQGGLQEGLQVTLQGTTKSFAQRFVVNFQNSFNGNDIAFHFNPRFEEGGYVVCNTKQNGQWGPEERKMQMPFQKGMPFELCFLVQRSEFKVMVNKKFFVQYQHRVPYHLVDTIAVSGCLKLSFITFQTQNFRPAHQAPMAQTTIHMVHSTPGQMFSTPGIPPVVYPTPAYTIPFYTPIPNGLYPSKSIMISGNVLPDATRFHINLRCGGDIAFHLNPRFNENAVVRNTQINNSWGQEERSLLGRMPFSRGQSFSVWIICEGHCFKVAVNGQHMCEYYHRLKNLQDINTLEVAGDIQLTHVQT
# Experiments:
# Assay in all cases: glycan array binding signal (z-score within array); higher = stronger binding
# Conditions in all cases: glycan notation: IUPAC condensed, linker removed
# [1] = molecular target: Fuc(a1-2)Gal(b1-4)[Fuc(a1-3)]GlcNAc
# How it was run: (§1)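 From the Consortium for Functional Glycomics database, 3228 arrays were curated, keeping only those whose protein sequence was available. Binding is given as a within-array Z-score averaged across arrays sharing a protein sequence and across linkers. Negative Z-scores can be read as non-binding.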
# [2] = molecular target: Fuc(a1-2)Gal(b1-4)[Fuc(a1-3)]GlcNAc(b1-2)Man(a1-3)[Fuc(a1-2)Gal(b1-4)[Fuc(a1-3)]GlcNAc(b1-2)Man(a1-6)]Man(b1-4)GlcNAc(b1-4)[Fuc(a1-6)]GlcNAc
# How it was run: as §1
# [3] = molecular target: Fuc(a1-2)Gal(b1-4)[Fuc(a1-3)]GlcNAc(b1-2)[Fuc(a1-2)Gal(b1-4)[Fuc(a1-3)]GlcNAc(b1-4)]Man(a1-3)[Fuc(a1-2)Gal(b1-4)[Fuc(a1-3)]GlcNAc(b1-2)Man(a1-6)]Man(b1-4)GlcNAc(b1-4)GlcNAc
# How it was run: as §1
# [4] = molecular target: Fuc(a1-2)Gal(b1-4)[Fuc(a1-3)]GlcNAc(b1-3)Gal(b1-4)[Fuc(a1-3)]GlcNAc
# How it was run: as §1
# [5] = molecular target: Fuc(a1-2)Gal(b1-4)[Fuc(a1-3)]GlcNAc(b1-3)Gal(b1-4)[Fuc(a1-3)]GlcNAc(b1-3)Gal(b1-4)[Fuc(a1-3)]GlcNAc
# How it was run: as §1
# [6] = molecular target: Fuc(a1-2)Gal(b1-4)[Fuc(a1-3)]GlcNAc(b1-3)GalNAc
# How it was run: as §1
# [7] = molecular target: Fuc(a1-2)Gal(b1-4)[Fuc(a1-3)]GlcNAc(b1-3)[Neu5Ac(a2-6)Gal(b1-4)GlcNAc(b1-6)]Gal(b1-4)Glc
# How it was run: as §1
# [8] = molecular target: Fuc(a1-2)Gal3S(b1-4)GlcNAc
# How it was run: as §1
# [9] = molecular target: Fuc(a1-2)Gal6S(b1-3)GlcNAc
# How it was run: as §1
# [10] = molecular target: Fuc(a1-2)Gal6S(b1-3)GlcNAc6S
# How it was run: as §1
# Fuc(a1-2)Gal6S(b1-4)Glc = molecular target: Fuc(a1-2)Gal6S(b1-4)Glc
# How it was run: as §1
# [11] = molecular target: Fuc(a1-2)Gal6S(b1-4)Glc6S
# How it was run: as §1
# Fuc(a1-2)[Gal(a1-3)]Gal = molecular target: Fuc(a1-2)[Gal(a1-3)]Gal
# How it was run: as §1
# [12] = molecular target: Fuc(a1-2)[Gal(a1-3)]Gal(b1-3)GalNAc
# How it was run: as §1
# [13] = molecular target: Fuc(a1-2)[Gal(a1-3)]Gal(b1-3)GalNAc(b1-3)Gal(a1-4)Gal(b1-4)Glc
# How it was run: as §1
# [14] = molecular target: Fuc(a1-2)[Gal(a1-3)]Gal(b1-3)GlcNAc
# How it was run: as §1
# [15] = molecular target: Fuc(a1-2)[Gal(a1-3)]Gal(b1-3)GlcNAc(b1-2)Man(a1-3)[Fuc(a1-2)[Gal(a1-3)]Gal(b1-3)GlcNAc(b1-2)Man(a1-6)]Man(b1-4)GlcNAc(b1-4)GlcNAc
# How it was run: as §1
# [16] = molecular target: Fuc(a1-2)[Gal(a1-3)]Gal(b1-3)GlcNAc(b1-2)Man(a1-3)[Fuc(a1-2)[Gal(a1-3)]Gal(b1-3)GlcNAc(b1-2)Man(a1-6)]Man(b1-4)GlcNAc(b1-4)[Fuc(a1-6)]GlcNAc
# How it was run: as §1
# [17] = molecular target: Fuc(a1-2)[Gal(a1-3)]Gal(b1-3)GlcNAc(b1-3)GalNAc
# How it was run: as §1
# [18] = molecular target: Fuc(a1-2)[Gal(a1-3)]Gal(b1-3)GlcNAc(b1-6)GalNAc
# How it was run: as §1
# [19] = molecular target: Fuc(a1-2)[Gal(a1-3)]Gal(b1-4)Glc
# How it was run: as §1
# [20] = molecular target: Fuc(a1-2)[Gal(a1-3)]Gal(b1-4)GlcNAc
# How it was run: as §1
# [21] = molecular target: Fuc(a1-2)[Gal(a1-3)]Gal(b1-4)GlcNAc(b1-2)Man
# How it was run: as §1
# [22] = molecular target: Fuc(a1-2)[Gal(a1-3)]Gal(b1-4)GlcNAc(b1-2)Man(a1-3)[Fuc(a1-2)[Gal(a1-3)]Gal(b1-4)GlcNAc(b1-2)Man(a1-6)]Man(b1-4)GlcNAc(b1-4)GlcNAc
# How it was run: as §1
# [23] = molecular target: Fuc(a1-2)[Gal(a1-3)]Gal(b1-4)GlcNAc(b1-2)Man(a1-3)[Fuc(a1-2)[Gal(a1-3)]Gal(b1-4)GlcNAc(b1-2)Man(a1-6)]Man(b1-4)GlcNAc(b1-4)[Fuc(a1-6)]GlcNAc
# How it was run: as §1
# [24] = molecular target: Fuc(a1-2)[Gal(a1-3)]Gal(b1-4)GlcNAc(b1-3)GalNAc
# How it was run: as §1
# [25] = molecular target: Fuc(a1-2)[Gal(a1-3)]Gal(b1-4)GlcNAc(b1-3)[Fuc(a1-2)[Gal(a1-3)]Gal(b1-4)GlcNAc(b1-6)]GalNAc
# How it was run: as §1
# [26] = molecular target: Fuc(a1-2)[Gal(a1-3)]Gal(b1-4)GlcNAc(b1-6)GalNAc
# How it was run: as §1
# [27] = molecular target: Fuc(a1-2)[Gal(a1-3)]Gal(b1-4)[Fuc(a1-3)]Glc
# How it was run: as §1
# [28] = molecular target: Fuc(a1-2)[Gal(a1-3)]Gal(b1-4)[Fuc(a1-3)]GlcNAc
# How it was run: as §1
# [29] = molecular target: Fuc(a1-2)[Gal(a1-3)]Gal(b1-4)[Fuc(a1-3)]GlcNAc(b1-3)GalNAc
# How it was run: as §1
# [30] = molecular target: Fuc(a1-2)[Gal(a1-4)]Gal(b1-4)GlcNAc
# How it was run: as §1
# [31] = molecular target: Fuc(a1-2)[GalNAc(a1-3)]Gal
# How it was run: as §1
# [32] = molecular target: Fuc(a1-2)[GalNAc(a1-3)]Gal(b1-3)GalNAc(a1-3)[Fuc(a1-2)]Gal(b1-4)GlcNAc
# How it was run: as §1
# [33] = molecular target: Fuc(a1-2)[GalNAc(a1-3)]Gal(b1-3)GalNAc(b1-3)Gal(a1-4)Gal(b1-4)Glc
# How it was run: as §1
# [34] = molecular target: Fuc(a1-2)[GalNAc(a1-3)]Gal(b1-3)GlcNAc
# How it was run: as §1
# [35] = molecular target: Fuc(a1-2)[GalNAc(a1-3)]Gal(b1-3)GlcNAc(b1-2)Man(a1-3)[Fuc(a1-2)[GalNAc(a1-3)]Gal(b1-3)GlcNAc(b1-2)Man(a1-6)]Man(b1-4)GlcNAc(b1-4)GlcNAc
# How it was run: as §1
# [36] = molecular target: Fuc(a1-2)[GalNAc(a1-3)]Gal(b1-3)GlcNAc(b1-2)Man(a1-3)[Fuc(a1-2)[GalNAc(a1-3)]Gal(b1-3)GlcNAc(b1-2)Man(a1-6)]Man(b1-4)GlcNAc(b1-4)[Fuc(a1-6)]GlcNAc
# How it was run: as §1
binder,measurement,setting,value
B1,glycan array binding signal (z-score),[1],-0.423
same,glycan array binding signal (z-score),[2],-0.315
same,glycan array binding signal (z-score),[3],0.524
same,glycan array binding signal (z-score),[4],-0.331
same,glycan array binding signal (z-score),[5],-0.31
same,glycan array binding signal (z-score),[6],-0.035
same,glycan array binding signal (z-score),[7],-0.438
same,glycan array binding signal (z-score),[8],-0.539
same,glycan array binding signal (z-score),[9],-0.507
same,glycan array binding signal (z-score),[10],0.395
same,glycan array binding signal (z-score),Fuc(a1-2)Gal6S(b1-4)Glc,-0.252
same,glycan array binding signal (z-score),[11],-0.203
same,glycan array binding signal (z-score),Fuc(a1-2)[Gal(a1-3)]Gal,-0.296
same,glycan array binding signal (z-score),[12],-0.407
same,glycan array binding signal (z-score),[13],-0.365
same,glycan array binding signal (z-score),[14],-0.095
same,glycan array binding signal (z-score),[15],-0.254
same,glycan array binding signal (z-score),[16],0.185
same,glycan array binding signal (z-score),[17],-0.154
same,glycan array binding signal (z-score),[18],-0.057
same,glycan array binding signal (z-score),[19],0.289
same,glycan array binding signal (z-score),[20],-0.025
same,glycan array binding signal (z-score),[21],0.292
same,glycan array binding signal (z-score),[22],1.3
same,glycan array binding signal (z-score),[23],0.446
same,glycan array binding signal (z-score),[24],-0.153
same,glycan array binding signal (z-score),[25],4.4
same,glycan array binding signal (z-score),[26],0.473
same,glycan array binding signal (z-score),[27],-0.453
same,glycan array binding signal (z-score),[28],-0.369
same,glycan array binding signal (z-score),[29],-0.287
same,glycan array binding signal (z-score),[30],-0.371
same,glycan array binding signal (z-score),[31],-0.468
same,glycan array binding signal (z-score),[32],-0.226
same,glycan array binding signal (z-score),[33],-0.329
same,glycan array binding signal (z-score),[34],-0.105
same,glycan array binding signal (z-score),[35],-0.434
same,glycan array binding signal (z-score),[36],-0.214
